{
  "source": "PubChem BioAssay AID686978",
  "about": "(National Center for Advancing Translational Sciences (NCATS), 2013)",
  "note": "In all, about 420,000 compounds went through this assay and about 64,000 (15%) were called active. This list was built around the results that the source calls inconclusive (neither active nor inactive); the mix of calls is not that of the screen. Calls follow the shape of the dose curve; as a rule, active = well fitted inhibition curve with a large enough effect; inconclusive = small, poorly fitted or top-dose-only effect; inactive = flat fitted curve, though single readings scatter. Potencies of inconclusive entries are left out as doubtful fits. % is scaled to controls: 0 for no effect and ±100 for the full control effect; potency is read from the fitted curve at half-maximal effect; tags tell the direction and shape of the fitted curve.",
  "data": [
    {"experiment": "qHTS for Inhibitors of human tyrosyl-DNA phosphodiesterase 1 (TDP1): qHTS in cells in absence of CPT; also: nearly all actives have a fitted effect of over 55% in size", "conditions": "DT40 Tdp1-/- hTDP1 cells, no CPT, ATP luminescence, 48 h; activity change, negative = growth inhibition: at 46.2 µM (top of the series) unless noted", "procedure,_shortened": "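Camptothecin absent (DMSO only). Human TDP1-complemented DT40 knockout cells, 400 cells/well, 37 °C for minimum 48 hr; ATP measured via CellTiter-Glo, 30 min dark incubation, luminescence.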", "values": [
      {"molecule": "CC(C)(C)NC(=S)NNC(=O)c1cccc(Br)c1", "Potency": "active: 6.51 µM"},
      {"molecule": "CCCCn1cc2c(c1-c1cccc(C)c1)c(=O)n(C)c(=O)n2C", "Potency": "inconclusive [inhibitor, single point]"},
      {"molecule": "CC(C)(C)c1ccc(C(=O)NCC(=O)OCC(=O)N2CCCC2)cc1", "activity change, negative = growth inhibition": "inactive: 2.29%"},
      {"molecule": "S=c1[nH]nc(COc2ccc(Cl)cc2)n1C1CCCCC1", "Potency": "inconclusive [inhibitor, single point]"},
      {"molecule": "Cc1ccc(-c2nc3cc(NC(=O)C(C)C)ccc3o2)cc1", "Potency": "inconclusive [inhibitor, single point]"},
      {"molecule": "Cc1ccc(C(C)NC(=O)c2cc3cc(Br)ccc3oc2=N)cc1", "note": "(stereo unspecified)", "Potency": "active: 20.6 µM"},
      {"molecule": "CC(C)CNc1ncnc2c1ncn2[C@H]1CN(Cc2ccco2)C[C@@H](CO)O1", "activity change, negative = growth inhibition": "inactive: -25.1%"},
      {"molecule": "Cc1ccc(C)c(COC(=O)c2cc([N+](=O)[O-])ccc2N2CCOCC2)c1", "Potency": "inconclusive [inhibitor, single point]"},
      {"molecule": "COc1ccc2c(c1)sc(=N)n2C", "Potency": "active: 18.4 µM"},
      {"molecule": "COc1ccc(N2CCN(S(=O)(=O)c3ccc4c(c3)CCCN4C(C)=O)CC2)cc1", "Potency": "inconclusive [inhibitor, partial curve]"},
      {"molecule": "COc1ccccc1NC(=O)COC(=O)C12CC3CC(CC(Cl)(C3)C1)C2", "Potency": "inconclusive [inhibitor, single point]"},
      {"molecule": "CC(C)C[C@@H]1COc2cc(N3CCC[C@@H]3CO)ccc2S(=O)(=O)N1", "activity change, negative = growth inhibition": "inactive: 5.3%"},
      {"molecule": "COc1cc2c(cc1OC)C(COc1ccc(C(C)C)cc1)N(C(=O)c1ccc(S(=O)(=O)N3CCCC3)cc1)CC2", "note": "(stereo unspecified)", "Potency": "active: 20.6 µM"},
      {"molecule": "Cc1ccc(NC2CCCN(C(=O)CCC3(C)CC3)C2)cc1C", "note": "(stereo unspecified)", "activity change, negative = growth inhibition": "inactive: -29.4%"},
      {"molecule": "Cc1ccc(S(=O)(=O)N2CCOCC2)cc1C(=O)N1CC(C)CC(C)C1", "note": "(stereo unspecified)", "Potency": "inconclusive [inhibitor, partial curve, poor fit]"},
      {"molecule": "Cn1nc(C(C)(C)C)cc1NC(=O)C1(C)CCN1C(=O)CCc1ccccc1", "note": "(stereo unspecified)", "Potency": "inconclusive [inhibitor, single point]"},
      {"molecule": "Cc1ccc2c(c1)N(C(=O)CCC(=O)NCc1cccs1)CCO2", "activity change, negative = growth inhibition": "inactive: -13.9%"},
      {"molecule": "COc1cc2c(cc1OC)C(c1cccs1)N(C(=O)c1ccc(S(=O)(=O)N(C)C)cc1)CC2", "note": "(stereo unspecified)", "Potency": "inconclusive [inhibitor, single point]"},
      {"molecule": "O=C1NC[C@H](CCCCN2C[C@H](Cc3ccc(O)cc3)N(CCc3ccc(O)cc3)C(=O)C2=O)N(CCc2ccccc2)C1=O", "activity change, negative = growth inhibition": "inactive: -3.29%"},
      {"molecule": "CCCN1C(=O)c2ccccc2NC1c1ccc(OC)c(COc2cccc(C)c2C)c1", "note": "(stereo unspecified)", "Potency": "active: 15.8 µM"},
      {"molecule": "Cc1cc([N+](=O)[O-])ccc1NC(=O)C(C)N1CCN(c2ccccn2)CC1", "note": "(stereo unspecified)", "Potency": "inconclusive [inhibitor, single point]"},
      {"molecule": "Cc1cc(N2CCCCC2C)nc(-c2ccccc2O)n1", "note": "(stereo unspecified)", "Potency": "active: 20.6 µM"},
      {"molecule": "Cc1[nH]n(-c2ccccc2)c(=O)c1N=Nc1nccs1", "Potency": "active: 23.1 µM"},
      {"molecule": "CN(C)c1ccc(/C=N/NC(=O)C[n+]2ccccc2)cc1", "activity change, negative = growth inhibition": "inactive: -9.17%"},
      {"molecule": "CCCCn1c(N)c(N(CC(C)C)C(=O)c2cccc(S(=O)(=O)N3CCN(C)CC3)c2)c(=O)[nH]c1=O", "activity change, negative = growth inhibition": "inactive: -1.65%"},
      {"molecule": "CCOc1ccc(CNC(=S)N/N=C/c2cccnc2)cc1", "activity change, negative = growth inhibition": "inactive: -1.82%"}
    ]}
  ]
}
